Reference: a compilation of properties of binary mixtures (doi:10.1021/acs.jced.1c00111)
The densities may have been worked out from excess volumes.

Assay: xn = mol fraction of the nth substance listed
Conditions: 100 kPa

**Q.** Which results are given for `CC[NH+](C)CC.CS(=O)(=O)[O-]` + O?
**A.** mass density (298.15 K, x1 = 0.0155): 1016.5 kg/m3; mass density (298.15 K, x1 = 0.0356): 1036.7 kg/m3; mass density (298.15 K, x1 = 0.0571): 1054.5 kg/m3; mass density (298.15 K, x1 = 0.0757): 1067.2 kg/m3; mass density (298.15 K, x1 = 0.1234): 1090.5 kg/m3; mass density (298.15 K, x1 = 0.1582): 1100.8 kg/m3; mass density (298.15 K, x1 = 0.206): 1111.3 kg/m3; mass density (298.15 K, x1 = 0.3246): 1124.2 kg/m3; mass density (298.15 K, x1 = 0.5018): 1131.6 kg/m3; mass density (298.15 K, x1 = 0.5783): 1133.3 kg/m3; mass density (298.15 K, x1 = 0.7782): 1135.9 kg/m3; mass density (303.15 K, x1 = 0.0155): 1014.8 kg/m3; mass density (303.15 K, x1 = 0.0356): 1034.7 kg/m3; mass density (303.15 K, x1 = 0.0571): 1052.1 kg/m3; mass density (303.15 K, x1 = 0.0757): 1064.6 kg/m3; mass density (303.15 K, x1 = 0.1234): 1087.5 kg/m3; mass density (303.15 K, x1 = 0.1582): 1097.8 kg/m3; mass density (303.15 K, x1 = 0.206): 1108.1 kg/m3; mass density (303.15 K, x1 = 0.4263): 1126.1 kg/m3; mass density (303.15 K, x1 = 0.5018): 1128.2 kg/m3; mass density (303.15 K, x1 = 0.5783): 1129.9 kg/m3; mass density (303.15 K, x1 = 0.7782): 1132.5 kg/m3; mass density (308.15 K, x1 = 0.0356): 1032.5 kg/m3; mass density (308.15 K, x1 = 0.0571): 1049.6 kg/m3; mass density (308.15 K, x1 = 0.0757): 1061.9 kg/m3; mass density (308.15 K, x1 = 0.0967): 1073.8 kg/m3; mass density (308.15 K, x1 = 0.1234): 1084.5 kg/m3; mass density (308.15 K, x1 = 0.1582): 1094.7 kg/m3; mass density (308.15 K, x1 = 0.206): 1105 kg/m3; mass density (308.15 K, x1 = 0.3246): 1117.7 kg/m3; mass density (308.15 K, x1 = 0.4263): 1122.8 kg/m3; mass density (308.15 K, x1 = 0.6771): 1128 kg/m3; mass density (313.15 K, x1 = 0.0155): 1011 kg/m3; mass density (313.15 K, x1 = 0.0356): 1030.2 kg/m3; mass density (313.15 K, x1 = 0.0757): 1059.2 kg/m3; mass density (313.15 K, x1 = 0.0967): 1070.9 kg/m3; mass density (313.15 K, x1 = 0.1234): 1081.5 kg/m3; mass density (313.15 K, x1 = 0.1582): 1091.6 kg/m3; mass density (313.15 K, x1 = 0.206): 1101.7 kg/m3; mass density (313.15 K, x1 = 0.5018): 1121.6 kg/m3; mass density (313.15 K, x1 = 0.5783): 1123.3 kg/m3; mass density (313.15 K, x1 = 0.6771): 1124.6 kg/m3; mass density (313.15 K, x1 = 0.7782): 1125.7 kg/m3; mass density (318.15 K, x1 = 0.0155): 1008.8 kg/m3; mass density (318.15 K, x1 = 0.0356): 1027.8 kg/m3; mass density (318.15 K, x1 = 0.0571): 1044.4 kg/m3; mass density (318.15 K, x1 = 0.0757): 1056.4 kg/m3; mass density (318.15 K, x1 = 0.0967): 1067.9 kg/m3; mass density (318.15 K, x1 = 0.1234): 1078.5 kg/m3; mass density (318.15 K, x1 = 0.206): 1098.5 kg/m3; mass density (318.15 K, x1 = 0.3246): 1111.1 kg/m3; mass density (318.15 K, x1 = 0.4263): 1116.1 kg/m3; mass density (318.15 K, x1 = 0.5018): 1118.2 kg/m3; mass density (318.15 K, x1 = 0.5783): 1119.9 kg/m3; mass density (318.15 K, x1 = 0.6771): 1121.3 kg/m3; mass density (318.15 K, x1 = 0.7782): 1122.4 kg/m3; mass density (323.15 K, x1 = 0.0155): 1006.5 kg/m3; mass density (323.15 K, x1 = 0.0356): 1025.2 kg/m3; mass density (323.15 K, x1 = 0.0571): 1041.7 kg/m3; mass density (323.15 K, x1 = 0.0757): 1053.5 kg/m3; mass density (323.15 K, x1 = 0.0967): 1064.9 kg/m3; mass density (323.15 K, x1 = 0.1234): 1075.4 kg/m3; mass density (323.15 K, x1 = 0.1582): 1085.2 kg/m3; mass density (323.15 K, x1 = 0.206): 1095.3 kg/m3; mass density (323.15 K, x1 = 0.3246): 1107.8 kg/m3; mass density (323.15 K, x1 = 0.4263): 1112.8 kg/m3; mass density (323.15 K, x1 = 0.5018): 1114.9 kg/m3; mass density (323.15 K, x1 = 0.5783): 1116.6 kg/m3; mass density (323.15 K, x1 = 0.6771): 1118 kg/m3; mass density (323.15 K, x1 = 0.7782): 1119 kg/m3; mass density (328.15 K, x1 = 0.0155): 1004 kg/m3; mass density (328.15 K, x1 = 0.0356): 1022.6 kg/m3; mass density (328.15 K, x1 = 0.0571): 1038.9 kg/m3; mass density (328.15 K, x1 = 0.0757): 1050.6 kg/m3; mass density (328.15 K, x1 = 0.0967): 1061.9 kg/m3; mass density (328.15 K, x1 = 0.1234): 1072.2 kg/m3; mass density (328.15 K, x1 = 0.3246): 1104.5 kg/m3; mass density (328.15 K, x1 = 0.4263): 1109.5 kg/m3; mass density (328.15 K, x1 = 0.5783): 1113.3 kg/m3; mass density (328.15 K, x1 = 0.6771): 1114.6 kg/m3; mass density (333.15 K, x1 = 0.0155): 1001.4 kg/m3; mass density (333.15 K, x1 = 0.0356): 1019.8 kg/m3; mass density (333.15 K, x1 = 0.0571): 1036 kg/m3; mass density (333.15 K, x1 = 0.0757): 1047.5 kg/m3; mass density (333.15 K, x1 = 0.1234): 1069 kg/m3; mass density (333.15 K, x1 = 0.1582): 1078.8 kg/m3; mass density (333.15 K, x1 = 0.206): 1088.7 kg/m3; mass density (333.15 K, x1 = 0.4263): 1106.2 kg/m3; mass density (333.15 K, x1 = 0.5783): 1110 kg/m3; mass density (333.15 K, x1 = 0.6771): 1111.3 kg/m3; mass density (333.15 K, x1 = 0.7782): 1112.4 kg/m3; mass density (338.15 K, x1 = 0.0155): 998.7 kg/m3; mass density (338.15 K, x1 = 0.0356): 1017 kg/m3; mass density (338.15 K, x1 = 0.0757): 1044.4 kg/m3; mass density (338.15 K, x1 = 0.0967): 1055.6 kg/m3; mass density (338.15 K, x1 = 0.1234): 1065.8 kg/m3; mass density (338.15 K, x1 = 0.1582): 1075.5 kg/m3; mass density (338.15 K, x1 = 0.206): 1085.3 kg/m3; mass density (338.15 K, x1 = 0.7782): 1109.1 kg/m3; mass density (343.15 K, x1 = 0.0155): 996.4 kg/m3; mass density (343.15 K, x1 = 0.0356): 1014 kg/m3; mass density (343.15 K, x1 = 0.0571): 1029.9 kg/m3; mass density (343.15 K, x1 = 0.0757): 1041.1 kg/m3; mass density (343.15 K, x1 = 0.0967): 1052.4 kg/m3; mass density (343.15 K, x1 = 0.1234): 1062.5 kg/m3; mass density (343.15 K, x1 = 0.1582): 1072.1 kg/m3; mass density (343.15 K, x1 = 0.206): 1082 kg/m3; mass density (343.15 K, x1 = 0.4263): 1099.6 kg/m3; mass density (343.15 K, x1 = 0.5018): 1101.7 kg/m3; mass density (343.15 K, x1 = 0.5783): 1103.4 kg/m3; mass density (343.15 K, x1 = 0.6771): 1104.7 kg/m3; mass density (343.15 K, x1 = 0.7782): 1105.8 kg/m3; mass density (348.15 K, x1 = 0.0155): 993.8 kg/m3; mass density (348.15 K, x1 = 0.0356): 1011 kg/m3; mass density (348.15 K, x1 = 0.0571): 1026.7 kg/m3; mass density (348.15 K, x1 = 0.0757): 1037.8 kg/m3; mass density (348.15 K, x1 = 0.0967): 1049.1 kg/m3; mass density (348.15 K, x1 = 0.1234): 1059.2 kg/m3; mass density (348.15 K, x1 = 0.1582): 1068.8 kg/m3; mass density (348.15 K, x1 = 0.206): 1078.6 kg/m3; mass density (348.15 K, x1 = 0.3246): 1091.1 kg/m3; mass density (348.15 K, x1 = 0.4263): 1096.2 kg/m3; mass density (348.15 K, x1 = 0.5018): 1098.4 kg/m3; mass density (348.15 K, x1 = 0.7782): 1102.5 kg/m3
